“And” between values parts separate entries of the source, which are not always exact repeats. Equal values may be shown once. In all, about 270,000 compounds went through this assay and about 5,800 (2.1%) were called active. Inconclusive means that the source gave no clear call. Such entries were picked first, then a sample of the others. Calls come from the whole dose curve; as a rule, active = well fitted inhibition curve with a large enough effect; inconclusive = small, poorly fitted or top-dose-only effect; inactive = flat fitted curve, though single readings scatter. Potencies of inconclusive entries are doubtful fits and often do not repeat.
Biological target: Microtubule-associated protein tau (Homo sapiens) (UniProt P10636)
Assay: qHTS for Inhibitors of Tau Fibril Formation, Thioflavin T Binding; note: nearly all actives have a fitted effect of over 55% in size
Conditions: recombinant tau K18 P301L (four-repeat tau fragment), heparin-induced fibrillization, ThT fluorescence; series mostly up to 57.4 µM; activity, negative = inhibition: at the top concentration
In short: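 Tau K18 P301L fragment (15 uM unlabeled plus 0.24 uM Alexa 594-labeled) in 100 mM sodium acetate pH 7 with compound, fibrillization induced by 20 uM heparin for 6 hr at 37 C. Thioflavin T (30 uM) added, fluorescence read after 1 hr (ex 450, em 510 nm).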
% is set by controls: 0 for no effect and ±100 for the full control effect; potency is the fitted concentration of half-maximal effect; tags give direction and shape of the fitted curve.

UniProt P10636, sequence (P10636 whole entry, looked up): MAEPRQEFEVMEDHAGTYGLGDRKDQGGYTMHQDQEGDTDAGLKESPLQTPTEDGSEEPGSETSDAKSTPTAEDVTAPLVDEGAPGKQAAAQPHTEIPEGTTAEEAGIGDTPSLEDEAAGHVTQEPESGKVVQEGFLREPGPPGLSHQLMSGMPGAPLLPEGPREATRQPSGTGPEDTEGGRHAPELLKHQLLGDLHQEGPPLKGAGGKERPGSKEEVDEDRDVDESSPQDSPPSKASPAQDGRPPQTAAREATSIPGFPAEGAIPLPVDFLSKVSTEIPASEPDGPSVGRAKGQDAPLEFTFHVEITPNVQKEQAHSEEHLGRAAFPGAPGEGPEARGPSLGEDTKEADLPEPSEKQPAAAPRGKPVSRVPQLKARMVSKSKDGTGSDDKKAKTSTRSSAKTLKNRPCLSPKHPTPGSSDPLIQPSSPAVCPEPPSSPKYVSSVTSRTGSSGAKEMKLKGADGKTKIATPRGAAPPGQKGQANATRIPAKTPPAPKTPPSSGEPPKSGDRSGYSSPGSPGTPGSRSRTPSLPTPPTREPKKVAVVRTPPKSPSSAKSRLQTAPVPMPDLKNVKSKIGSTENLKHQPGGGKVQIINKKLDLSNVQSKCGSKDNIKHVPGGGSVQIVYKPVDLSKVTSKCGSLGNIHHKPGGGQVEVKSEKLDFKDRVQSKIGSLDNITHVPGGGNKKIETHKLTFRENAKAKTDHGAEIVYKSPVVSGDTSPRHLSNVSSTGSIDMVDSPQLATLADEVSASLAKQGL

| SMILES | Potency | activity, negative = inhibition |
| --- | --- | --- |
| C=C(CCC12O[C@H](C(=O)O)[C@@](O)(C(=O)O)[C@](C(=O)O)(O1)[C@H](OC(=O)/C=C/[C@@H](C)C[C@@H](C)CC)[C@H]2O)[C@@H](OC(C)=O)[C@H](C)Cc1ccccc1 | inconclusive: 15.8 µM [inhibitor, partial curve, poor fit] | – |
| CC(=O)N1CCN(c2ccc(NCc3cccs3)cc2)CC1 | active: 28.2 µM | – |
| CC(=O)Nc1ccc(/C(C)=N/Nc2nc(N3CCOCC3)nc(N3CCOCC3)n2)cc1 | inconclusive: 14.1 µM [inhibitor, partial curve] | – |
| CN(C)c1cc2c(Nc3ccc4c(cnn4Cc4ccccc4)c3)ncnc2cn1 | inconclusive: 7.94 µM [inhibitor, full curve] | – |
| O=C(N/N=C/c1cc([N+](=O)[O-])ccc1O)c1ccncc1 | inconclusive: 20 µM [inhibitor, partial curve] | – |
| S=C(NCCCN1CCOCC1)Nc1ccc(Nc2ccccc2)cc1 | inconclusive: 22.4 µM [inhibitor, single point] | – |
| COc1ccccc1/C=C/C=N/N1CCN(c2ccccn2)CC1 | inconclusive: 14.1 µM [inhibitor, partial curve] | – |
| O=C1CC(c2ccco2)CC(O)=C1C=NCCN1CCNCC1 (stereo unspecified) | inconclusive: 28.2 µM [inhibitor, partial curve] | – |
| COc1ccc(OC)c(NC(=O)Cn2c(CCC(=O)O)ccc2-c2ccc(C)cc2)c1 | inconclusive: 31.6 µM [inhibitor, single point] | – |
| O=C(Cn1cnc2c(nnn2Cc2ccccc2F)c1=O)N1CCN(c2ccccc2)CC1 | inconclusive: 22.4 µM [inhibitor, single point] | – |
| COc1ccc2nc3ccccc3nc2c1NC(=O)c1ccc(Cl)cc1 | inconclusive: 3.16 µM [inhibitor, full curve, poor fit] | – |
| CCc1nnc2c(NCCc3ccc(OC)c(OC)c3)nc3ccccc3n12 | inconclusive: 14.1 µM [inhibitor, partial curve] | – |
| COc1ccc(C(=O)Nc2ccc(OCc3cc(=O)n4ccccc4n3)cc2)cc1 | inconclusive: 0.631 µM [inhibitor, full curve] | – |
| Cc1noc2ncc(C(=O)c3cc(F)ccc3O)cc12 | – | inactive: -6.26% |
| COc1ccc(CNC(=O)c2ccc3[nH]c(C)c(C)c3c2)c(OC)c1 | inconclusive: 11.2 µM [inhibitor, partial curve] | – |
| CCOc1cccc(CNc2ccc(O)cc2)c1OCc1ccccc1Cl | active: 7.08 µM and active: 28.2 µM | – |
| N#C/C(=C\c1ccc(-c2ccc(F)cc2F)o1)c1nc2ccccc2[nH]1 | inconclusive: 5.01 µM [inhibitor, partial curve] | – |
| COc1ccc(NS(=O)(=O)c2cc(NC(=O)c3ccco3)ccc2N2CCCC2)cc1 | inconclusive: 20 µM [inhibitor, single point] | – |
| COc1ccc(CCNCC(=O)Nc2ccc(C)c(S(=O)(=O)N(C)C)c2)cc1 | – | inactive: -4.06% |
| CCCc1nc2ccccc2c(=O)n1/N=C/c1c(C)[nH]n(-c2ccc(C)cc2)c1=O | – | inactive: -17.2% |
| CNC(=S)Nc1cccc(C(C)=O)c1 | – | inactive: -11.2% |
| C=CCn1c(NCc2c[nH]c3ccccc23)nc2ccccc21 | inconclusive: 31.6 µM [inhibitor, single point] | – |

| SMILES | Potency | activity, negative = inhibition |
| --- | --- | --- |
| N=C1C(c2ccc(Br)cc2)=C(O)C2CCc3ccccc3N12 (stereo unspecified) | inconclusive: 0.562 µM [inhibitor, full curve, poor fit] | – |
| C/C(=C\C(=O)Nc1cscc1C)C(=O)O | inconclusive: 39.8 µM [inhibitor, single point] | – |
| CC(C)c1nnc(NC(=O)CCC(=O)N2CCN(Cc3ccccc3)CC2)s1 | inconclusive: 0.0251 µM [inhibitor, full curve, poor fit] | – |
| CC(=O)c1c(C)[nH]c(C(=O)OCC(=O)Nc2ncc(Cl)c(C)c2Cl)c1C | inconclusive: 31.6 µM [inhibitor, single point] | – |
| CC(=O)/C(=N\Nc1cccc(Cl)c1)Sc1cccc2cccnc12 | inconclusive: 44.7 µM [inhibitor, partial curve, poor fit] | – |
| COc1ccc(-c2nnc(SCC(=O)Nc3ccc(C(C)=O)cc3)nc2-c2ccc(OC)cc2)cc1 | inconclusive: 17.8 µM [inhibitor, partial curve] | – |
| CCCS(=O)(=O)c1c(S(=O)(=O)CCC)c2c(N)cccn2c1C(=O)c1ccccc1 | inconclusive: 28.2 µM [inhibitor, partial curve] | – |
| COC(=O)c1c(NC(=O)COc2cc(C)c(Cl)c(C)c2)sc2c1CCCC2 | inconclusive: 22.4 µM [inhibitor, partial curve] | – |
| C/C(O)=C(\N=Nc1cc(C)ccc1O)C(N)=O | active: 10 µM | – |
| CC(=O)c1ccc(-n2nnnc2SCC(=O)Nc2sc(C)c(C)c2C#N)cc1 | inconclusive: 11.2 µM [inhibitor, partial curve] | – |
| Cc1noc2ncnc(SCc3ccc(C(F)(F)F)cc3)c12 | – | inactive: -14.3% |
| CN(C)c1ccc(C(=O)c2ccc(O)cc2O)cc1 | inconclusive: 12.6 µM [inhibitor, partial curve] | – |
| N#CC1=C2SCN(c3ccccc3)CN2C(=O)CC1c1cccs1 (stereo unspecified) | active: 25.1 µM | – |
| CCc1ccc(NC(=O)CC2C(=O)N(c3ccc(Cl)cc3)C(=O)N2Cc2cccs2)cc1 (stereo unspecified) | inconclusive: 31.6 µM [activator, partial curve] | – |
| CC(=O)CC(=O)Nc1ncccn1 | – | inactive: -5.46% |
| O=C(O)c1nc2ccccc2nc1C(=O)O | inconclusive: 35.5 µM [inhibitor, single point] | – |
| COn1c(-c2ccc(Cl)cc2)nc2ccc(Cl)cc21 | inconclusive: 11.2 µM [inhibitor, partial curve] | – |
| CCCOc1ccc(C2c3c(oc4cc(C)c(C)cc4c3=O)C(=O)N2CCCN(C)C)cc1 (stereo unspecified) | inconclusive: 14.1 µM [inhibitor, partial curve] | – |
| COc1cccc(CN(Cc2ccco2)C(c2ccc(F)cc2)c2nnnn2C(C)(C)C)c1 (stereo unspecified) | – | inactive: -14.1% |
| COc1ccc(OCc2nn3c(Cn4cnc5ccccc54)nnc3s2)cc1 | – | inactive: -13.5% |
| Cc1cc(C)nc(SCC(=O)Nc2ccc(S(=O)(=O)Nc3onc(C)c3C)cc2)n1 | – | inactive: -7.35% |
| COc1ccc(N(CC(=O)NCc2ccc(C)cc2)S(=O)(=O)c2ccccc2[N+](=O)[O-])c(OC)c1 | inconclusive: 39.8 µM [inhibitor, single point] | – |

| SMILES | Potency | activity, negative = inhibition |
| --- | --- | --- |
| Cc1[nH]c2ccccc2c1C(=O)CSC(=S)N1CCCCC1 | inconclusive: 17.8 µM [inhibitor, single point] | – |
| CC(Oc1ccc(Cl)cc1Cl)c1nc(-c2ccc(NC(=O)c3ccccn3)cc2)no1 (stereo unspecified) | inconclusive: 1.41 µM [inhibitor, full curve] | – |
| Cc1ccc(-c2ccc(/C=C(\C#N)C(=O)Nc3cc(C)nn3-c3ccccc3)o2)cc1 | – | inactive: 3.05% |
| Cc1ccc(NC(=O)CSCc2nc3c(nnn3Cc3ccc(F)cc3)c(=O)[nH]2)c(C)c1 | inconclusive: 22.4 µM [inhibitor, partial curve, poor fit] | – |
| O=C(CSCc1cccc(Cl)c1)N/N=C/c1ccc(OCC(=O)N2CCCCC2)cc1 | inconclusive: 0.0891 µM [inhibitor, full curve, poor fit] | – |
| Cc1ccc(C)n1-c1ccc(NC(=O)c2ccccc2)cc1 | inconclusive: 14.1 µM [inhibitor, partial curve] | – |
| CCOC(=O)c1[nH]c2ccc(OC)cc2c1NC(=O)/C=C/c1ccc2c(c1)OCO2 | – | inactive: -2.55% |
| c1coc(-c2nc3ccccn3c2Nc2ccc3c(c2)OCCO3)c1 | inconclusive: 25.1 µM [inhibitor, partial curve] | – |
| Cc1ccc(/C=C2/C(=O)N(c3ccccc3)C(=S)N2C)o1 | inconclusive: 25.1 µM [inhibitor, partial curve] | – |
| CN1CCc2c(sc3c2C(=O)NC(c2cccs2)N3)C1 (stereo unspecified) | active: 12.6 µM | – |
| CC1CCCN(C(=O)C(C)Sc2nc(-c3ccccc3)cc(C(F)(F)F)n2)C1 (stereo unspecified) | inconclusive: 22.4 µM [inhibitor, partial curve] | – |
| CC(C)(C)c1ccc(-c2nc(O)c(CC(=O)O)s2)cc1 | inconclusive: 17.8 µM [inhibitor, partial curve] | – |
| Cc1ccc(S(=O)(=O)NC(C(=O)Oc2ccc3ccc(=O)oc3c2)c2ccccc2)cc1 (stereo unspecified) | inconclusive: 39.8 µM [inhibitor, single point] | – |
| CCc1ccc(NC(=O)CSC2=Nc3ccccc3C3=NC(CC(=O)NCc4ccc5c(c4)OCO5)C(=O)N23)cc1 (stereo unspecified) | – | inactive: 3.95% |
| Cc1cc(Cl)ccc1OC(C)C(=O)Nc1ccc([N+](=O)[O-])cn1 (stereo unspecified) | inconclusive: 39.8 µM [inhibitor, single point] | – |
| CCCc1cc(C(=O)NNC(=S)Nc2cccc(C)c2)cs1 | inconclusive: 25.1 µM [inhibitor, partial curve] | – |
| COc1ccc(C/C(C)=N/NC(=S)Nc2ccc(C(C)C)cc2)cc1 | inconclusive: 17.8 µM [inhibitor, partial curve, poor fit] | – |
| CN(C)c1ccc(NC(=O)Cn2c(SCc3ccc(F)cc3)nc3cccnc32)cc1 | – | inactive: -3.35% |
| Cc1nc(/N=C(\N)NC(=O)N2c3ccccc3Sc3ccccc32)nc2ccccc12 | inconclusive: 11.2 µM [inhibitor, partial curve] | – |
| COc1cccc2c1CCC1=CC(=O)CC[C@@]12C | – | inactive: -1.57% |
| CCOC(=O)c1ccc(NC(=O)c2cnc(N3CCCC3)nc2C)cc1 | inconclusive: 12.6 µM [inhibitor, partial curve] | – |
| C=CC(=O)c1ccc2ccccc2c1 | inconclusive: 6.31 µM [activator, single point] and inconclusive: 28.2 µM [activator, single point] | – |

From PubChem BioAssay AID1460 (National Center for Advancing Translational Sciences (NCATS), 2008)
